# Results from a collection of fitness landscapes (doi:10.1016/j.celrep.2020.107928).
# Over roughly 81,000 sequences, “one-hybrid fitness for binding NBS DNA” has its median near -0.1; the highest 2% begin near 0.36. This is one part of the list.
# B1: Caulobacter ParB omega fusion; a variant is named by its letters at X, in order, B8GW30 (parent)
# chain: MESVVVGEPGMSEGRRGLGRGLSALLGEVDAAPAQAPGEQLGGSREAPIEILQRNPDQPRRTFREEDLEDLSNSIREKGVLQPILVRPSPDTAGEYQIVAGERAWRAAQRAGLKTVPIMVRELDDLAVLEIGIIENVQRADLNVLEEALSYKVLMEKFERTQENIAQTIGKSXSHVANXMRLLXLPDEVQSYLVSGELTAXHARAIAAAADPVALAKQIIEGGLSVRETEALARKAPNLSAGKSKGGRPPRVKDTDTQALESDLSSVLGLDVSIDHRGSTGTLTITYATLEQLDDLCNRLTRGI
# Variants of: B1
# Test: one-hybrid fitness for binding NBS DNA (the Noc-binding site; scaled: cognate 1, non-cognate 0); higher = stronger binding
# Conditions: with NBS DNA site
# Outline: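 In E. coli USO, a HIS3 reporter with its site placed 19 bp from the promoter was used to select Caulobacter ParB variants randomised at four specificity codons. Growth lasted 48 hours at 37°C on histidine-free M9 containing 0.1 mM IPTG and 5 mM 3-AT. Fitness was taken as the log change in variant-to-wild-type read ratio from Illumina sequencing of pre- and post-selection plasmids, rescaled between the non-cognate and cognate sites.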
row,Variant,one-hybrid fitness for binding NBS DNA
1,SPNP,≤ 0.2
2,WALP,≤ 0.2
3,KCYT,≤ 0.2
4,RFTL,≤ 0.2
5,ARPF,≤ 0.2
6,ASDK,≤ 0.2
7,VISG,≤ 0.2
8,NEDS,≤ 0.2
9,HPGT,≤ 0.2
10,QCGT,0.558
11,WSYC,≤ 0.2
12,RVGP,≤ 0.2
13,SHHL,≤ 0.2
14,NLQN,≤ 0.2
15,KASS,≤ 0.2
16,EMMG,≤ 0.2
17,EHQR,≤ 0.2
18,NMKY,≤ 0.2
19,FINS,≤ 0.2
20,QVAE,≤ 0.2
21,RGIM,≤ 0.2
22,IRWT,≤ 0.2
23,NAIL,≤ 0.2
24,TKRG,≤ 0.2

row,Variant,one-hybrid fitness for binding NBS DNA
1,KDEG,≤ 0.2
2,QVDK,≤ 0.2
3,GHTS,≤ 0.2
4,LSIR,≤ 0.2
5,TRLS,≤ 0.2
6,FMTR,≤ 0.2
7,AQEI,≤ 0.2
8,KREW,≤ 0.2
9,LQCA,≤ 0.2
10,WCFG,≤ 0.2
11,LPDV,≤ 0.2
12,QSDI,≤ 0.2
13,IPAC,≤ 0.2
14,QNDD,≤ 0.2
15,GLQV,≤ 0.2
16,VYAT,≤ 0.2
17,QGEC,≤ 0.2
18,KEPT,≤ 0.2
19,TGTH,≤ 0.2
20,KYDR,≤ 0.2
21,RYPS,≤ 0.2
22,GCIC,≤ 0.2
23,LICV,≤ 0.2
24,NPPK,≤ 0.2

row,Variant,one-hybrid fitness for binding NBS DNA
1,NPFT,≤ 0.2
2,SDKR,≤ 0.2
3,LVVT,≤ 0.2
4,TEYT,≤ 0.2
5,EWGC,≤ 0.2
6,CGVC,≤ 0.2
7,QRIA,0.436
8,DETR,≤ 0.2
9,GTTS,≤ 0.2
10,LTTR,≤ 0.2
11,HTYW,≤ 0.2
12,LHAA,≤ 0.2
13,ACDY,≤ 0.2
14,EPVT,≤ 0.2
15,MGST,≤ 0.2
16,DFID,≤ 0.2
17,YYWS,≤ 0.2
18,HAML,≤ 0.2
19,PLAR,≤ 0.2
20,HDSL,≤ 0.2
21,LGQL,≤ 0.2
22,PYIE,≤ 0.2
23,THCE,≤ 0.2
24,YPIT,≤ 0.2

row,Variant,one-hybrid fitness for binding NBS DNA
1,IIYI,≤ 0.2
2,YASL,≤ 0.2
3,HVMF,≤ 0.2
4,VLLI,≤ 0.2
5,PQVC,≤ 0.2
6,DNWR,≤ 0.2
7,WYSV,≤ 0.2
8,KDKE,≤ 0.2
9,VLPS,≤ 0.2
10,GLLG,≤ 0.2
11,KRFC,≤ 0.2
12,ANYF,≤ 0.2
13,RHND,≤ 0.2
14,MQVQ,≤ 0.2
15,QCWR,0.49
16,DPHN,≤ 0.2
17,WGRW,≤ 0.2
18,QAES,≤ 0.2
19,QVRS,0.482
20,NLGS,≤ 0.2
21,QWCF,≤ 0.2
22,QWKG,≤ 0.2
23,NSYS,≤ 0.2
24,VHMV,≤ 0.2

row,Variant,one-hybrid fitness for binding NBS DNA
1,QCHD,≤ 0.2
2,WSKR,0.359
3,TWMS,≤ 0.2
4,ASIY,≤ 0.2
5,RWAW,≤ 0.2
6,LEQT,≤ 0.2
7,MYRK,≤ 0.2
8,DRPL,≤ 0.2
9,PSTK,≤ 0.2
10,MWPT,≤ 0.2
11,MRGC,≤ 0.2
12,GHIC,≤ 0.2
13,QHSY,≤ 0.2
14,HWNC,≤ 0.2
15,VCKA,≤ 0.2
16,SWPA,≤ 0.2
17,VNNC,≤ 0.2
18,HQPS,≤ 0.2
19,IHEE,≤ 0.2
20,QFPT,≤ 0.2
21,FGYL,≤ 0.2
22,KEHD,≤ 0.2
23,TFHC,≤ 0.2
24,RWIN,≤ 0.2

row,Variant,one-hybrid fitness for binding NBS DNA
1,GHAL,≤ 0.2
2,LSAY,≤ 0.2
3,RHWF,≤ 0.2
4,RVNH,0.213
5,YPST,≤ 0.2
6,HWWW,≤ 0.2
7,ESPV,≤ 0.2
8,LLKP,≤ 0.2
9,PTDP,≤ 0.2
10,EMDI,≤ 0.2
11,ADKS,≤ 0.2
12,CVSG,≤ 0.2
13,MGQS,≤ 0.2
14,SMRY,≤ 0.2
15,ADPC,≤ 0.2
16,ISMR,≤ 0.2
17,LGVQ,≤ 0.2
18,AWST,≤ 0.2
19,QTDG,≤ 0.2
20,FLRC,≤ 0.2
21,QPLF,≤ 0.2
22,DRTT,≤ 0.2
23,VCFG,≤ 0.2
24,AMCG,≤ 0.2

row,Variant,one-hybrid fitness for binding NBS DNA
1,QDSL,≤ 0.2
2,AFGL,≤ 0.2
3,MHMS,≤ 0.2
4,AAVS,≤ 0.2
5,SRET,≤ 0.2
6,WSKV,≤ 0.2
7,WAMH,≤ 0.2
8,IANR,≤ 0.2
9,GMVR,≤ 0.2
10,WHQC,≤ 0.2
11,NSLA,≤ 0.2
12,ASAC,≤ 0.2
13,FHRF,≤ 0.2
14,NSGL,≤ 0.2
15,RCLY,≤ 0.2
16,QESL,≤ 0.2
17,EVNG,≤ 0.2
18,QADL,≤ 0.2
19,IKYW,≤ 0.2
20,SAQG,≤ 0.2
21,STYY,≤ 0.2
22,TSGG,≤ 0.2
23,LYNC,≤ 0.2
24,MMWS,≤ 0.2

row,Variant,one-hybrid fitness for binding NBS DNA
1,MKNI,≤ 0.2
2,RSQP,≤ 0.2
3,LLAR,≤ 0.2
4,KKKG,≤ 0.2
5,FSGR,≤ 0.2
6,AAKL,≤ 0.2
7,ADLC,≤ 0.2
8,NIVA,≤ 0.2
9,PTSL,≤ 0.2
10,AKHA,≤ 0.2
11,WSDE,≤ 0.2
12,RTQH,≤ 0.2
13,EHAY,≤ 0.2
14,SLMH,≤ 0.2
15,LRRF,≤ 0.2
16,QQTR,0.648
17,CARY,≤ 0.2
18,TTLR,≤ 0.2
19,WVRG,≤ 0.2
20,TWPF,≤ 0.2
21,NDTR,≤ 0.2
22,KVWC,≤ 0.2
23,FKSA,≤ 0.2
24,TIMT,≤ 0.2

row,Variant,one-hybrid fitness for binding NBS DNA
1,YFTD,≤ 0.2
2,WGFC,≤ 0.2
3,QHAT,0.41
4,SNVD,≤ 0.2
5,QMAS,0.389
6,PELS,≤ 0.2
7,GKNT,≤ 0.2
8,DKTK,≤ 0.2
9,GSQT,≤ 0.2
10,QMCF,≤ 0.2
11,SSSK,≤ 0.2
12,SNVI,≤ 0.2
13,YRSA,≤ 0.2
14,KEDG,≤ 0.2
15,RRDR,0.666
16,CVVC,≤ 0.2
17,GYRM,≤ 0.2
18,CVCL,≤ 0.2
19,RFME,≤ 0.2
20,TYHN,≤ 0.2
21,HPDI,≤ 0.2
22,DYNW,≤ 0.2
23,DTRS,≤ 0.2
24,TMNR,≤ 0.2

row,Variant,one-hybrid fitness for binding NBS DNA
1,QLQP,≤ 0.2
2,YKHV,≤ 0.2
3,KERC,≤ 0.2
4,IHRF,≤ 0.2
5,KRKH,0.482
6,WCVC,≤ 0.2
7,KTHR,0.269
8,NFHV,≤ 0.2
9,SAIR,≤ 0.2
10,ACPE,≤ 0.2
11,HQPF,≤ 0.2
12,SNTN,≤ 0.2
13,TYKC,≤ 0.2
14,WYVY,≤ 0.2
15,RNFE,≤ 0.2
16,VPRR,≤ 0.2
17,QAED,≤ 0.2
18,NPDG,≤ 0.2
19,QEHT,≤ 0.2
20,GSTV,≤ 0.2
21,MNLD,≤ 0.2
22,QHRY,0.488
23,AHQE,≤ 0.2
24,FYDT,≤ 0.2

row,Variant,one-hybrid fitness for binding NBS DNA
1,QSSM,≤ 0.2
2,HKKK,≤ 0.2
3,HTCK,≤ 0.2
4,DPFC,≤ 0.2
5,IVTF,≤ 0.2
6,GGDS,≤ 0.2
7,VMPY,≤ 0.2
8,TVCL,≤ 0.2
9,QKRI,0.301
10,TAYQ,≤ 0.2
11,KSLT,≤ 0.2
12,NEGS,≤ 0.2
13,RMQR,0.411
14,LHEP,≤ 0.2
15,GSPA,≤ 0.2
16,YLTG,≤ 0.2
17,PRHH,≤ 0.2
18,RFAL,≤ 0.2
19,RWHI,≤ 0.2
20,YRTY,≤ 0.2
21,MLQN,≤ 0.2
22,QTQV,0.207
23,QTVD,≤ 0.2
24,GKHS,≤ 0.2

row,Variant,one-hybrid fitness for binding NBS DNA
1,HYYD,≤ 0.2
2,GREL,≤ 0.2
3,VVDA,≤ 0.2
4,WEPR,≤ 0.2
5,LSLK,≤ 0.2
6,YRDA,≤ 0.2
7,MWDF,≤ 0.2
8,EAKG,≤ 0.2
9,KYRL,≤ 0.2
10,HPTV,≤ 0.2
11,QWWS,≤ 0.2
12,NRSM,≤ 0.2
13,RKIM,≤ 0.2
14,HNQS,≤ 0.2
15,YIFC,≤ 0.2
16,GLMS,≤ 0.2
17,QHNT,0.49
18,SLTA,≤ 0.2
19,MYHG,≤ 0.2
20,WFLL,≤ 0.2
21,SGPS,≤ 0.2
22,MCTG,≤ 0.2
23,RMKI,≤ 0.2
24,WNMS,≤ 0.2

row,Variant,one-hybrid fitness for binding NBS DNA
1,IHCS,≤ 0.2
2,FCAT,≤ 0.2
3,HLLT,≤ 0.2
4,RCEI,≤ 0.2
5,QFVG,≤ 0.2
6,QIKF,≤ 0.2
7,SYMT,≤ 0.2
8,RPLV,≤ 0.2
9,WVGG,≤ 0.2
10,HKHF,≤ 0.2
11,NIPG,≤ 0.2
12,RLNC,≤ 0.2
13,NKKM,≤ 0.2
14,MYNT,≤ 0.2
15,KTFC,≤ 0.2
16,WYQT,≤ 0.2
17,LTDL,≤ 0.2
18,QHKM,0.379
